Data taken from the supplement of paper PMC11417369.
± gives the standard deviation of the averaged measurements. This is one part of the list.

tested on: PfAP2-I AP2 domain 3 (GST-tagged); test: gcPBM binding intensity (ln(normalized median fluorescence intensity)); higher = stronger DNA binding
How it was run: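 DNA-binding domains from P. falciparum, fused to GST and produced in E. coli, were put on an Agilent 4 × 180k double-stranded probe array for 1 h in 1× PBS holding 1% milk, 0.2 mg/ml BSA, 0.5% salmon testes DNA and 0.03% Triton X-100. Probes were primer-extended, 36 bp long and drawn from intergenic genomic regions, with negative controls included. After Alexa488 anti-GST antibody detection and a 488 nm scan, binding intensity was set as the highest Masliner-normalised natural-log median intensity across replicate spots of either probe orientation.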

Row | Sequence | gcPBM binding intensity (ln)
1 | TTTTATACATATTTTACACACTAAAATATACAGATA [CACACA_site4333] | 7.91 ± 0.59
2 | TTACATATTCATAAAAGTACATAATTATAAAAGGTA [XGTACX_site906] | 7.94 ± 0.31
3 | AAAATTAATTTATTTACACACAATATTAAAATATTT [CACACA_site7512] | 7.77 ± 0.4
4 | TATATATGGAAAAGAGTCAAAAAGAAAAAAGAAAAA [CACACA_negctrl_site1374] | 7.79 ± 0.69
5 | TATGAAATATTTATACACAGAACTTCATAATTTTCA [TGCATGCA_negctrl_site509] | 7.42 ± 0.47
6 | TTTTTGTATTCTTCTTCTTCCAGACTACATTATGTC [XGTACX_negctrl_site235] | 7.74 ± 0.66
7 | ATATATTTAAAATTGACACACATTTAATGACATTTT [CACACA_site3112] | 7.61 ± 0.61
8 | TTTTTATTTTTTGAAACACACACAAAAAAAATGATA [CACACA_site8564] | 7.93 ± 0.23
9 | TAAGGATATATATATTCACACACACCGGGAAATATA [CACACA_site8020] | 7.72 ± 0.69
10 | AAACAAATATATATATGTACTTATAAAAAAAAAAAT [XGTACX_site2211] | 7.66 ± 0.46
11 | CATTTTTTGCTTTCAACACACATACAATATATATAA [CACACA_site6127] | 8.15 ± 0.57
12 | CTTTATTTTTTATACACACACAATATGTATATATAT [CACACA_site3550] | 8.2 ± 0.54
13 | AAGGATCACGCACAAACACACATATTTATATTTATA [CACACA_site6405] | 8.13 ± 0.59
14 | ATTAAATTAAAATAATGTACTTAATACTTTTGCTTA [XGTACX_site8404] | 7.39 ± 0.39
15 | AACAATTTTTAAAGGTGTACAATATGTATATAAGAA [XGTACX_site254] | 8.54 ± 0.29
16 | AATTTTGAGATGTGGTGTACACAAAATTAGTTAGAC [XGTACX_site7033] | 8.94 ± 0.35
17 | TCAACGATCACTCGGTGTACTATAAATGAGAGAATT [XGTACX_site1820] | 7.97 ± 0.7
18 | ATATATATATATAAAGGTACACATTTATTAAATATA [XGTACX_site7102] | 9.23 ± 0.67
19 | TATTTGCAATATTATACACACATTAGATATTGCAAA [CACACA_site7565] | 8.3 ± 0.43
20 | TAATATATATAACATATACACACGTTCATATATATA [CACACA_site462] | 7.89 ± 0.46
21 | AACAAATTAATTCTAGTGCAGGACGTATTTGTGTAC [GTGCAC_site9907] | 9.12 ± 0.7
22 | AAAAAAAAAAAAAAATGTACATATATAATATTTATA [XGTACX_site5117] | 8.13 ± 0.39
23 | TACAAAATGTTATATCAATATAGATAAAAAAATGAA [XGTACX_negctrl_site285] | 7.71 ± 0.45

Row | Sequence | gcPBM binding intensity (ln)
24 | ATATATATAAATATATGTACATAAATATATTTGTAA [XGTACX_site6715] | 7.99 ± 0.46
25 | AATTAAACTTTGTTTTTGTTTTTTTTTTTTATATTT [CACACA_negctrl_site1316] | 7.3 ± 0.48
26 | TCTTTAACAAGTTAAACACACATACCTATATACATA [CACACA_site7237] | 7.73 ± 0.64
27 | TGGTGATATACGAAATGTACGCAAATCACAAAATAA [XGTACX_site8836] | 8.09 ± 0.65
28 | AAATAAAAATTAAAAAAATAGAAACGAATTGAATGC [TGCATGCA_negctrl_site365] | 7.83 ± 0.64
29 | CGCGTATAACGAAATTGTACAAAAAAAATTAAACAT [XGTACX_site6813] | 8.05 ± 0.59
30 | CTTTCATATGTTTTAACACACACGCATATATTATAT [CACACA_site8615] | 8.28 ± 0.54
31 | TTTTTTTTTTTGATTTGTACACAAAAAAAATATATG [XGTACX_site4547] | 8.1 ± 0.71
32 | TTTTTTTTTTGATGTTGTACATATATATTATATATA [XGTACX_site6377] | 8.02 ± 0.48
33 | TTTTTTTTTTTTTTTTGTACATATTTTTAAACTATA [XGTACX_site2897] | 8 ± 0.59
34 | AGATATATGGACGACTCACACATTTAAATTCATTCA [CACACA_site6047] | 7.88 ± 0.59
35 | ATTTATTTGTTTGTTTTTTTTACGATTTTTATTTTT [CACACA_negctrl_site1138] | 7.69 ± 0.67
36 | CGTATTTATATAATTACACACCATATTTTAATTATT [CACACA_site5960] | 7.91 ± 0.47
37 | ATAAACAATTAACAAACATGCAAATTTTAAATGTGT [TGCATGCA_site919] | 7.62 ± 0.73
38 | ATCTATGATATATACACACACATGTATAAATAAATA [CACACA_site7012] | 7.75 ± 0.47
39 | TAATTTTTTTTTCTTGTACACACTATTTTATAATTT [CACACA_site4078] | 8.09 ± 0.44
40 | ATTTTTTTATAAAATTTTTATATATTATATAAATAT [GTGCAC_negctrl_site163] | 7.57 ± 0.58
41 | TAAAAATAGTATACAACACACGAGGGAAAATAAAGT [CACACA_site3837] | 8.74 ± 0.74
42 | TATCGAGCACGGCGTGTGGAGTTACAAAGAGGAGAA [CACACA_negctrl_site40] | 8 ± 0.67
43 | AAATGTATAATATTTTCACACACAAGAAAAAAGAAA [CACACA_site9195] | 7.75 ± 0.49
44 | AGAAATGAAATATACACACATACATATATACATATA [CACACA_site4033] | 7.66 ± 0.47
45 | ACCCTCATATTATAGACACACACAAAAAAAATAAAA [CACACA_site7941] | 8.04 ± 0.23
46 | ATTAATAATGAGTTATGTACATACATATTTTAAGAT [XGTACX_site7543] | 7.96 ± 0.49

Row | Sequence | gcPBM binding intensity (ln)
47 | TAAATACACCCTAGACGTACATAAAAATTTAGTATG [XGTACX_site2512] | 7.84 ± 0.33
48 | AAAAACAAACTGTGCATGCACCAAAAAAAAAAAAAA | 10.4 ± 0.35
49 | TAAACATACATATACACACACACACCCACACCCACA [CACACA_site492] | 8.06 ± 0.28
50 | TGTCCTTATGGGCACACACACATATAAGAAATTTAA [CACACA_site3187] | 7.96 ± 0.31
51 | ATATTTATATATATGTGTACATATAGAAACATAAAA [XGTACX_site4355] | 7.88 ± 0.39
52 | CTTCTTATTTTCTAATGTACGTACAAATCATTTATA [XGTACX_site2176] | 8.45 ± 0.34
53 | TTTTTTTTTTTAATTTGTACGAATCTTTTTATTTTA [XGTACX_site4516] | 7.81 ± 0.81
54 | TATATAAAAAAACAAAGTACATGTTCTTAATCATTT [XGTACX_site8446] | 7.52 ± 0.45
55 | AAATGAACAAGTGGCACACACACATCATAACTAATT [CACACA_site5730] | 8.25 ± 0.47
56 | CAAAATATATATACCACACACACATACCTCTATTTG [CACACA_site1853] | 7.97 ± 0.44
57 | ATATATTTTTTCTTAACACACATATATAAAATAAAA [CACACA_site3500] | 7.93 ± 0.42
58 | CACGCGAACATACATACACACACATATATATATATG [CACACA_site7951] | 7.94 ± 0.4
59 | TATATATATATATACACACACACACCGATATATATA [CACACA_site8813] | 9.32 ± 0.47
60 | AAATATAATATATGCACACATACATACAGATATATA [CACACA_site4235] | 9.22
61 | ATAAATATAGGACACACACACATATTATATATATAT [CACACA_site5658] | 9.04 ± 0.13
62 | ATAATATAAATATGCACACAAATTATTACCCAAAAA [CACACA_site2524] | 8.79 ± 0.18
63 | GTTATATTCCTACAGAGTACATAAAAATGCACATCA [XGTACX_site1948] | 8.46 ± 0.39
64 | TTGCCCATTTAATTAACACACAAATGTTTATATTCT [CACACA_site6488] | 7.94 ± 0.51
65 | TTTGAAATAAGCAAATGTACATTATTATTAAATATA [XGTACX_site6158] | 7.53 ± 0.45
66 | TTCACATACAGAAACACACACATATATATAAATTAA [CACACA_site3705] | 7.81 ± 0.42
67 | TGTATGATAACTATAGTGCATTTGGTAATTTTTCCA | 9.79 ± 0.18
68 | TATTTCATGATACAATGTACATGTATATATGATACC [XGTACX_site5057] | 7.92 ± 0.46
69 | AATAATATATATTACACACGCATCGTTCATTTATTT [CACACA_site2391] | 7.87 ± 0.92

Row | Sequence | gcPBM binding intensity (ln)
70 | ATATATACATATATTACACACTTCTTATTCTAAGAA [CACACA_site3022] | 7.71 ± 0.49
71 | CTAGCAAATACATACACACACACACCGATACAGATA [CACACA_site5853] | 7.96 ± 0.42
72 | TCCATAAAAATGGATACACACACATAATATATATAT [CACACA_site9207] | 8.79 ± 0.13
73 | TATAATATAAGGATCACACACAAACACCCATATATA [CACACA_site4468] | 7.92 ± 0.36
74 | CATACATACATACATACACACATACCTATATTTATA [CACACA_site6769] | 8.79 ± 0.65
75 | TTAATAACAAAATAAACACACATATATAAATACCCA [CACACA_site4960] | 7.73 ± 0.52
76 | AGCAAAAAAAAAAAAAAAAAAAAAATAATAAAAAAT [TGCATGCA_negctrl_site202] | 7.54 ± 0.54
77 | GTTTTCTAGTGGGGGTGTACATATTTATATTTAATA [XGTACX_site8378] | 10.8 ± 0.23
78 | ATATATATATAATAAGTGCAAAAAAAAGAAAAAAAT | 10.18 ± 0.035
79 | TTTTTTTTTTTTGAGGTGCATATATCAGATCAATAT | 10.8 ± 0.58
80 | CATATATTAATATGTACACACATTAATAAAAAAAAA [CACACA_site7504] | 7.88 ± 0.29
81 | AGTATTCATAAAAATACACACATGGAAAAATAAAAT [CACACA_site1454] | 7.89 ± 0.69
82 | ATTGTGGATATTCTTACACACAAATTTATTTATAAA [CACACA_site7267] | 7.52 ± 0.47
83 | TAAGAAATTGAGCGCACACATACATCTGTGGGATGG [CACACA_site1548] | 8.19 ± 0.46
84 | ATGTAAATATTTTGTATGCACTTTGATGCATCTTTT | 9.995 ± 0.078
85 | TTTTTTTCTTCTTTTCTCTTAAAAATATTGAATATT [CACACA_negctrl_site1762] | 7.5 ± 0.67
86 | TCAAGAGTTATATAAACACACATACATACAGACATA [CACACA_site6998] | 7.79 ± 0.43
87 | AAAAAAAAAAAAAAAAAAAAAAAAAAAAAAAAAAAG [CACACA_negctrl_site292] | 10.4 ± 0.2
88 | TATTCGAACAAAAATACATGCACATATGCATAATAA [TGCATGCA_site171] | 9.48 ± 0.45
89 | TTTTCCAGTAAATATTTTTTTATAATATTTATATAT [CACACA_negctrl_site387] | 7.66 ± 0.54
